This test concerns the target GAL4 DNA-binding domain-fused full-length androgen receptor (AR), pBIND vector (UniProt P10275). Kind of test: two-hybrid; mammalian two-hybrid in HEK 293 cells: VP16-PAK6 full length or deletion mutants (pACT), GAL4 DBD-AR (pBIND), pG5-Luc reporter, renilla control; androgen treatment not stated for this panel.

Chains of the proteins cited; added tags and fusions are not shown.
UniProt P10275: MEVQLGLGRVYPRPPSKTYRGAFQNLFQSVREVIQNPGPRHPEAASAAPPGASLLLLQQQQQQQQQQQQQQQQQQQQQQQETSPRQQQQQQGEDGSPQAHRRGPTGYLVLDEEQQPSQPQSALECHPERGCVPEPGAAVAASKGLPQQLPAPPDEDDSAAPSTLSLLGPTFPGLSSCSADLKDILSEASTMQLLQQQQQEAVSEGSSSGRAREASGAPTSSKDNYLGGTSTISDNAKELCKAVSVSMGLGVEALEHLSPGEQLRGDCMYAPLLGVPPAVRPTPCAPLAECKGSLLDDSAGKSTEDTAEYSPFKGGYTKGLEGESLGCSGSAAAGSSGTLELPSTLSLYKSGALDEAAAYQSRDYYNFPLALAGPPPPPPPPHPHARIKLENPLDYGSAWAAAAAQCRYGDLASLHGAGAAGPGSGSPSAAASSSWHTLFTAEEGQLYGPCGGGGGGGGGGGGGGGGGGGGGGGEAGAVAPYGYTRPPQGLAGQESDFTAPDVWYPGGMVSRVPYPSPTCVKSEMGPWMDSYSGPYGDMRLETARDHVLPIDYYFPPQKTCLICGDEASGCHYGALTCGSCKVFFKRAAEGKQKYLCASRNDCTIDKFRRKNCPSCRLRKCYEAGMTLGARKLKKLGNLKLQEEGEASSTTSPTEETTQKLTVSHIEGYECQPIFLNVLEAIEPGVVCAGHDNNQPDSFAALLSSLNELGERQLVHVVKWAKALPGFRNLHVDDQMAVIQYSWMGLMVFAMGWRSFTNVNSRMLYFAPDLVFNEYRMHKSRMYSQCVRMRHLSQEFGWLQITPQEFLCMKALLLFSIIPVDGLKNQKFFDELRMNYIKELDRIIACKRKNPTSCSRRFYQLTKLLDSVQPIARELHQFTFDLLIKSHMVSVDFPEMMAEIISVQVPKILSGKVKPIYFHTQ

Results are given in words; binding and its absence hold for the method and conditions named. Some entries that bind do so weakly or less than the wild type. Tags and fused reporters may be left off the sequences shown.

B1: VP16-fused PAK6 Δ190 deletion mutant, pACT vector (domain or fragment, UniProt Q9NQU5 191-681)
chain: RCLQLGACLQSSPPGASPPTGTNRHGMKAAKHGSEEARPQSCLVGSATGRPGGEGSPSPKTRESSLKRRLFRSMFLSTAATAPPSSSKPGPPPQSKPNSSFRPPQKDNPPSLVAKAQSLPSDQPVGTFSPLTTSDTSSPQKSLRTAPATGQLPGRSSPAGSPRTWHAQISTSNLYLPQDPTVAKGALAGEDTGVVTHEQFKAALRMVVDQGDPRLLLDSYVKIGEGSTGIVCLAREKHSGRQVAVKMMDLRKQQRRELLFNEVVIMRDYQHFNVVEMYKSYLVGEELWVLMEFLQGGALTDIVSQVRLNEEQIATVCEAVLQALAYLHAQGVIHRDIKSDSILLTLDGRVKLSDFGFCAQISKDVPKRKSLVGTPYWMAPEVISRSLYATEVDIWSLGIMVIEMVDGEPPYFSDSPVQAMKRLRDSPPPKLKNSHKVSPVLRDFLERMLVRDPQERATAQELLDHPFLLQTGLPECLVPLIQLYRKQTSTC
Turning to B1, the binding entry was “binds”.
